The supplement of paper PMC4967469
The IC50 comes from the fitted curve, where viability falls to half of the control; fits outside the tested doses are given as limits. The AUC spans the tested range (256-fold, ending at the top dose) of the same fit; it is 1 without any effect and falls as sensitivity rises. For part of these data: An inferred top dose comes from the curve model; the source does not state it. For part of these data: Drugs with an entry number were screened twice under separate entries, and the two screens often disagree.

Tests used:
Assay in all cases: Viability of human cancer cell lines after 72 h of drug (GDSC screen)
TW-37 = compound: CC(C)c1ccccc1Cc1cc(C(=O)Nc2ccc(S(=O)(=O)c3ccccc3C(C)(C)C)cc2)c(O)c(O)c1O [TW-37]; conditions: top dose 5 µM
Method: (§1)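 Human cancer cell lines in 384-well plates, medium with 10% serum, drug for 72 h over a 256-fold dose range (nine 2-fold or five 4-fold steps up to the top dose). Adherent lines were fixed and stained with the nucleic acid dye Syto60, suspension lines read with resazurin; signal relative to control wells, capped at 0 and 100%. One two-parameter sigmoid per drug and line, fitted in a mixed model over all curves with the slope shared within a line.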

T0901317 = compound: O=S(=O)(c1ccccc1)N(CC(F)(F)F)c1ccc(C(O)(C(F)(F)F)C(F)(F)F)cc1 [T0901317]; conditions: top dose 10.24 µM; top dose inferred
Method: as §1

MP470 = compound: S=C(NCc1ccc2c(c1)OCO2)N1CCN(c2ncnc3c2oc2ccccc23)CC1 [MP470]; conditions: top dose 20 µM; top dose inferred
Method: as §1

Nilotinib = compound: Cc1cn(-c2cc(NC(=O)c3ccc(C)c(Nc4nccc(-c5cccnc5)n4)c3)cc(C(F)(F)F)c2)cn1 [Nilotinib]; conditions: top dose 2 µM
Method: as §1

KIN001-270 = compound: Cc1ccc(Nc2cc(-c3cccc(N4C(=O)c5ccccc5C4=O)c3)ncn2)cc1NS(C)(=O)=O [KIN001-270]; conditions: top dose 20 µM; top dose inferred
Method: as §1

GNF-2 = compound: NC(=O)c1cccc(-c2cc(Nc3ccc(OC(F)(F)F)cc3)ncn2)c1 [GNF-2]; conditions: top dose 1.28 µM; top dose inferred
Method: as §1

Gemcitabine = compound: Nc1ccn([C@@H]2O[C@H](CO)[C@@H](O)C2(F)F)c(=O)n1 [Gemcitabine]; conditions: top dose 1.024 µM
Method: as §1

LFM-A13 = compound: C/C(O)=C(\C#N)C(=O)Nc1cc(Br)ccc1Br [LFM-A13]; conditions: top dose 16 µM; top dose inferred
Method: as §1

Bicalutamide = compound: CC(O)(CS(=O)(=O)c1ccc(F)cc1)C(=O)Nc1ccc(C#N)c(C(F)(F)F)c1 [Bicalutamide]; conditions: top dose inferred
Method: as §1

AUY922 = compound: CCNC(=O)c1noc(-c2cc(C(C)C)c(O)cc2O)c1-c1ccc(CN2CCOCC2)cc1 [AUY922]; conditions: top dose 0.256 µM; top dose inferred
Method: as §1

[1] = top dose 1.024 µM, screen: GDSC drug entry 150
[2] = top dose 10 µM, screen: GDSC drug entry 1502

Cell Line | AUC (TW-37) | IC50 (TW-37) | AUC (T0901317) | IC50 (T0901317) | AUC (MP470) | IC50 (MP470) | AUC (Nilotinib) | IC50 (Nilotinib) | AUC (KIN001-270) | IC50 (KIN001-270) | AUC (GNF-2) | IC50 (GNF-2) | AUC (Gemcitabine) | IC50 (Gemcitabine) | AUC (LFM-A13) | IC50 (LFM-A13) | AUC (Bicalutamide; [1]) | IC50 (Bicalutamide; [1]) | AUC (Bicalutamide; [2]) | IC50 (Bicalutamide; [2]) | AUC (AUY922) | IC50 (AUY922)
NU-DUL-1 (B-cell lymphoma, suspension) | 0.491 | 296 nM | 0.971 | > 10200 nM | 0.861 | 11800 nM | 0.992 | > 2000 nM | 0.95 | > 20000 nM | 0.993 | > 1280 nM | 0.03 | < 4 nM | 0.99 | > 16000 nM | 0.993 | > 1020 nM | 0.988 | > 10000 nM | 0.705 | 52.6 nM
NCI-SNU-1 (stomach, suspension) | 0.813 | 2820 nM | 0.959 | > 10200 nM | 0.905 | > 20000 nM | 0.981 | > 2000 nM | 0.916 | > 20000 nM | 0.988 | > 1280 nM | 0.126 | < 4 nM | 0.983 | > 16000 nM | 0.985 | > 1020 nM | 0.985 | > 10000 nM | 0.424 | 9.84 nM
ES8 (Ewing sarcoma, adherent) | 0.378 | 148 nM | 0.986 | > 10200 nM | 0.953 | > 20000 nM | 0.982 | > 2000 nM | 0.925 | > 20000 nM | 0.987 | > 1280 nM | 0.127 | 4.77 nM | 0.959 | > 16000 nM | 0.987 | > 1020 nM | 0.984 | > 10000 nM | 0.615 | 32.3 nM
U-87-MG (glioma, adherent) | 0.398 | 156 nM | 0.979 | > 10200 nM | 0.981 | > 20000 nM | 0.984 | > 2000 nM | 0.966 | > 20000 nM | 0.985 | > 1280 nM | 0.708 | 277 nM | 0.972 | > 16000 nM | 0.984 | > 1020 nM | 0.982 | > 10000 nM | 0.663 | 49.5 nM
EW-16 (Ewing sarcoma, adherent) | 0.442 | 215 nM | 0.972 | > 10200 nM | 0.964 | > 20000 nM | 0.981 | > 2000 nM | 0.982 | > 20000 nM | 0.978 | > 1280 nM | 0.052 | < 4 nM | 0.905 | > 16000 nM | 0.984 | > 1020 nM | 0.982 | > 10000 nM | 0.367 | 6.74 nM
SIMA (neuroblastoma, adherent) | 0.385 | 144 nM | 0.971 | > 10200 nM | 0.762 | 8020 nM | 0.985 | > 2000 nM | 0.955 | > 20000 nM | 0.98 | > 1280 nM | 0.539 | 83.1 nM | 0.971 | > 16000 nM | 0.984 | > 1020 nM | 0.98 | > 10000 nM | 0.821 | 174 nM
OCI-AML2 (acute myeloid leukaemia, suspension) | 0.548 | 410 nM | 0.959 | > 10200 nM | 0.577 | 1920 nM | 0.995 | > 2000 nM | 0.951 | > 20000 nM | 0.995 | > 1280 nM | 0.115 | 6.43 nM | 0.993 | > 16000 nM | 0.995 | > 1020 nM | 0.994 | > 10000 nM | 0.406 | 9.47 nM
SK-ES-1 (Ewing sarcoma, semi-adherent) | 0.524 | 365 nM | 0.946 | > 10200 nM | 0.652 | 3400 nM | 0.97 | > 2000 nM | 0.971 | > 20000 nM | 0.985 | > 1280 nM | 0.111 | < 4 nM | 0.922 | > 16000 nM | 0.98 | > 1020 nM | 0.977 | > 10000 nM | 0.504 | 16.4 nM
SU-DHL-6 (B-cell lymphoma, suspension) | 0.373 | 153 nM | 0.958 | > 10200 nM | 0.9 | 13800 nM | 0.982 | > 2000 nM | 0.912 | 15400 nM | 0.995 | > 1280 nM | 0.344 | 26.7 nM | 0.984 | > 16000 nM | 0.989 | > 1020 nM | 0.995 | > 10000 nM | 0.567 | 23.2 nM
LP-1 (myeloma, suspension) | 0.731 | 1230 nM | 0.933 | > 10200 nM | 0.733 | 5000 nM | 0.993 | > 2000 nM | 0.934 | > 20000 nM | 0.993 | > 1280 nM | 0.976 | > 1020 nM | 0.992 | > 16000 nM | 0.993 | > 1020 nM | 0.993 | > 10000 nM | 0.957 | > 256 nM
BB49-HNC (head and neck, adherent) | 0.72 | 1730 nM | 0.973 | > 10200 nM | 0.959 | > 20000 nM | 0.978 | > 2000 nM | 0.976 | > 20000 nM | 0.919 | > 1280 nM | 0.968 | > 1020 nM | 0.932 | > 16000 nM | 0.941 | > 1020 nM | 0.95 | > 10000 nM | 0.528 | 19.7 nM
NB10 (neuroblastoma, adherent) | 0.473 | 265 nM | 0.98 | > 10200 nM | 0.837 | 13000 nM | 0.987 | > 2000 nM | 0.975 | > 20000 nM | 0.984 | > 1280 nM | 0.476 | 55 nM | 0.986 | > 16000 nM | 0.987 | > 1020 nM | 0.971 | > 10000 nM | 0.759 | 87.3 nM
